{
  "source": "paper PMC9911399",
  "about": "“Two distinct binding modes provide the RNA-binding protein RbFox with extraordinary sequence specificity”",
  "binders": {"B1": {"name": "CGGAACU (DNA:RNA)", "RNA": "GGGAGACCGGAAUUCAGAUUGUCCCGGAACUUUAAAUCCCGUCGUAGCCACCA", "DNA 1": "CAATCTGAATTCCGGTCTCCC", "DNA 2": "TGGTGGCTACGACGGGATT"}, "B2": {"name": "CCGUCAC (DNA:RNA)", "RNA": "B1 RNA with G26C, A28U, A29C, C30A, U31C", "DNA 1": "CAATCTGAATTCCGGTCTCCC", "DNA 2": "TGGTGGCTACGACGGGATT"}, "B3": {"name": "AGAAUAG (DNA:RNA)", "RNA": "B1 RNA with C25A, G27A, A29U, C30A, U31G", "DNA 1": "CAATCTGAATTCCGGTCTCCC", "DNA 2": "TGGTGGCTACGACGGGATT"}, "B4": {"name": "UUGUCGC (DNA:RNA)", "RNA": "B1 RNA with C25U, G26U, A28U, A29C, C30G, U31C", "DNA 1": "CAATCTGAATTCCGGTCTCCC", "DNA 2": "TGGTGGCTACGACGGGATT"}, "B5": {"name": "AAUCACC (DNA:RNA)", "RNA": "B1 RNA with C25A, G26A, G27U, A28C, U31C", "DNA 1": "CAATCTGAATTCCGGTCTCCC", "DNA 2": "TGGTGGCTACGACGGGATT"}, "B6": {"name": "UGUGGGG (DNA:RNA)", "RNA": "B1 RNA with C25U, G27U, A28G, A29G, C30G, U31G", "DNA 1": "CAATCTGAATTCCGGTCTCCC", "DNA 2": "TGGTGGCTACGACGGGATT"}, "B7": {"name": "CACGUCG (DNA:RNA)", "RNA": "B1 RNA with G26A, G27C, A28G, A29U, U31G", "DNA 1": "CAATCTGAATTCCGGTCTCCC", "DNA 2": "TGGTGGCTACGACGGGATT"}, "B8": {"name": "UCGAAUC (DNA:RNA)", "RNA": "B1 RNA with C25U, G26C, C30U, U31C", "DNA 1": "CAATCTGAATTCCGGTCTCCC", "DNA 2": "TGGTGGCTACGACGGGATT"}, "B9": {"name": "UCUCCUG (DNA:RNA)", "RNA": "GGGAGACCGGAAUUCAGAUUGUCCUCUCCUGUUAAAUCCCGUCGUAGCCACCA", "DNA 1": "CAATCTGAATTCCGGTCTCCC", "DNA 2": "TGGTGGCTACGACGGGATT"}, "B10": {"name": "GAUUGCC (DNA:RNA)", "RNA": "B1 RNA with C25G, G26A, G27U, A28U, A29G, U31C", "DNA 1": "CAATCTGAATTCCGGTCTCCC", "DNA 2": "TGGTGGCTACGACGGGATT"}, "B11": {"name": "UCUCAUU (DNA:RNA)", "RNA": "B9 RNA with C29A, G31U", "DNA 1": "CAATCTGAATTCCGGTCTCCC", "DNA 2": "TGGTGGCTACGACGGGATT"}, "B12": {"name": "GUUACAC (DNA:RNA)", "RNA": "B9 RNA with U25G, C26U, C28A, U30A, G31C", "DNA 1": "CAATCTGAATTCCGGTCTCCC", "DNA 2": "TGGTGGCTACGACGGGATT"}, "B13": {"name": "AAUCCGA (DNA:RNA)", "RNA": "B9 RNA with U25A, C26A, U30G, G31A", "DNA 1": "CAATCTGAATTCCGGTCTCCC", "DNA 2": "TGGTGGCTACGACGGGATT"}, "B14": {"name": "CGUCCCC (DNA:RNA)", "RNA": "B1 RNA with G27U, A28C, A29C, U31C", "DNA 1": "CAATCTGAATTCCGGTCTCCC", "DNA 2": "TGGTGGCTACGACGGGATT"}, "B15": {"name": "GAAAUCA (DNA:RNA)", "RNA": "B1 RNA with C25G, G26A, G27A, A29U, U31A", "DNA 1": "CAATCTGAATTCCGGTCTCCC", "DNA 2": "TGGTGGCTACGACGGGATT"}, "B16": {"name": "UUCCACG (DNA:RNA)", "RNA": "B9 RNA with C26U, U27C, C29A, U30C", "DNA 1": "CAATCTGAATTCCGGTCTCCC", "DNA 2": "TGGTGGCTACGACGGGATT"}, "B17": {"name": "CUCUCUG (DNA:RNA)", "RNA": "B9 RNA with U25C, C26U, U27C, C28U", "DNA 1": "CAATCTGAATTCCGGTCTCCC", "DNA 2": "TGGTGGCTACGACGGGATT"}, "B18": {"name": "AUAGUGG (DNA:RNA)", "RNA": "B9 RNA with U25A, C26U, U27A, C28G, C29U, U30G", "DNA 1": "CAATCTGAATTCCGGTCTCCC", "DNA 2": "TGGTGGCTACGACGGGATT"}, "B19": {"name": "UGCAACC (DNA:RNA)", "RNA": "B1 RNA with C25U, G27C, U31C", "DNA 1": "CAATCTGAATTCCGGTCTCCC", "DNA 2": "TGGTGGCTACGACGGGATT"}, "B20": {"name": "UUGGUCA (DNA:RNA)", "RNA": "B1 RNA with C25U, G26U, A28G, A29U, U31A", "DNA 1": "CAATCTGAATTCCGGTCTCCC", "DNA 2": "TGGTGGCTACGACGGGATT"}, "B21": {"name": "GCGGUCG (DNA:RNA)", "RNA": "B1 RNA with C25G, G26C, A28G, A29U, U31G", "DNA 1": "CAATCTGAATTCCGGTCTCCC", "DNA 2": "TGGTGGCTACGACGGGATT"}, "B22": {"name": "UAAGGUC (DNA:RNA)", "RNA": "B9 RNA with C26A, U27A, C28G, C29G, G31C", "DNA 1": "CAATCTGAATTCCGGTCTCCC", "DNA 2": "TGGTGGCTACGACGGGATT"}, "B23": {"name": "CGUAAGA (DNA:RNA)", "RNA": "B1 RNA with G27U, C30G, U31A", "DNA 1": "CAATCTGAATTCCGGTCTCCC", "DNA 2": "TGGTGGCTACGACGGGATT"}, "B24": {"name": "GUUUACA (DNA:RNA)", "RNA": "B1 RNA with C25G, G26U, G27U, A28U, U31A", "DNA 1": "CAATCTGAATTCCGGTCTCCC", "DNA 2": "TGGTGGCTACGACGGGATT"}, "B25": {"name": "UGCCAGU (DNA:RNA)", "RNA": "B1 RNA with C25U, G27C, A28C, C30G", "DNA 1": "CAATCTGAATTCCGGTCTCCC", "DNA 2": "TGGTGGCTACGACGGGATT"}, "B26": {"name": "UAUUUAU (DNA:RNA)", "RNA": "B9 RNA with C26A, C28U, C29U, U30A, G31U", "DNA 1": "CAATCTGAATTCCGGTCTCCC", "DNA 2": "TGGTGGCTACGACGGGATT"}, "B27": {"name": "GUUAUGU (DNA:RNA)", "RNA": "B1 RNA with C25G, G26U, G27U, A29U, C30G", "DNA 1": "CAATCTGAATTCCGGTCTCCC", "DNA 2": "TGGTGGCTACGACGGGATT"}, "B28": {"name": "CCUCAGG (DNA:RNA)", "RNA": "B9 RNA with U25C, C29A, U30G", "DNA 1": "CAATCTGAATTCCGGTCTCCC", "DNA 2": "TGGTGGCTACGACGGGATT"}, "B29": {"name": "AAGCUCU (DNA:RNA)", "RNA": "B1 RNA with C25A, G26A, A28C, A29U", "DNA 1": "CAATCTGAATTCCGGTCTCCC", "DNA 2": "TGGTGGCTACGACGGGATT"}, "B30": {"name": "CAUAGGU (DNA:RNA)", "RNA": "B1 RNA with G26A, G27U, A29G, C30G", "DNA 1": "CAATCTGAATTCCGGTCTCCC", "DNA 2": "TGGTGGCTACGACGGGATT"}, "B31": {"name": "AUAUGAC (DNA:RNA)", "RNA": "GGGAGACCGGAAUUCAGAUUGUCCAUAUGACUUAAAUCCCGUCGUAGCCACCA", "DNA 1": "CAATCTGAATTCCGGTCTCCC", "DNA 2": "TGGTGGCTACGACGGGATT"}},
  "note": "Where a chain is given by its changes, count along the chain named. Some of the results follow.",
  "data": [
    {"molecular_target": "T1, RBFOX1 RRM (Homo sapiens, UniProt Q9NWB1 109-208)", "T1 sequence": "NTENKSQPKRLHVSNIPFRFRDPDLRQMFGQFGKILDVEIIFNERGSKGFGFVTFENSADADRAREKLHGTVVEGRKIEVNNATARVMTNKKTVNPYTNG", "experiment": "EMSA; HiTS-Eq, 1 nM pool, 10 min; buffer printed only for the single-RNA assays: 10 mM Tris pH 7.5, 150 mM NaCl, 3.4 mM EDTA, 0.001% NP-40, 30 C", "settings": "tags: His6 N-terminal (pET28a); label: 5' 32P", "in_short": "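These values rest on relative association constants, computed from read-count changes of each RNA species versus the control reaction and normalised to the cognate motif. Reads came from free RNA recovered by 8% native PAGE after purified RbFox RRM (wild type or mutant) at increasing concentrations was equilibrated for 10 min in 50 µL with 1 nM of a 5′-radiolabelled pool with 7 randomized nucleotides and DNA-annealed flanks.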", "values": [
      {"binder": "B1", "binding signal": "0.0254 KA relative to UGCAUGU"},
      {"binder": "B2", "binding signal": "0.00351 KA relative to UGCAUGU"},
      {"binder": "B3", "binding signal": "0.0047 KA relative to UGCAUGU"},
      {"binder": "B4", "binding signal": "0.0248 KA relative to UGCAUGU"},
      {"binder": "B5", "binding signal": "0.00159 KA relative to UGCAUGU"},
      {"binder": "B6", "binding signal": "0.0122 KA relative to UGCAUGU"},
      {"binder": "B7", "binding signal": "0.00524 KA relative to UGCAUGU"},
      {"binder": "B8", "binding signal": "0.0109 KA relative to UGCAUGU"},
      {"binder": "B9", "binding signal": "0.0131 KA relative to UGCAUGU"},
      {"binder": "B10", "binding signal": "0.0181 KA relative to UGCAUGU"},
      {"binder": "B11", "binding signal": "0.00456 KA relative to UGCAUGU"},
      {"binder": "B12", "binding signal": "0.00626 KA relative to UGCAUGU"},
      {"binder": "B13", "binding signal": "0.00338 KA relative to UGCAUGU"},
      {"binder": "B14", "binding signal": "0.00217 KA relative to UGCAUGU"},
      {"binder": "B15", "binding signal": "0.00653 KA relative to UGCAUGU"},
      {"binder": "B16", "binding signal": "0.00321 KA relative to UGCAUGU"},
      {"binder": "B17", "binding signal": "0.0137 KA relative to UGCAUGU"},
      {"binder": "B18", "binding signal": "0.007 KA relative to UGCAUGU"},
      {"binder": "B19", "binding signal": "0.0185 KA relative to UGCAUGU"},
      {"binder": "B20", "binding signal": "0.0152 KA relative to UGCAUGU"},
      {"binder": "B21", "binding signal": "0.0188 KA relative to UGCAUGU"},
      {"binder": "B22", "binding signal": "0.0168 KA relative to UGCAUGU"},
      {"binder": "B23", "binding signal": "0.00668 KA relative to UGCAUGU"},
      {"binder": "B24", "binding signal": "0.00515 KA relative to UGCAUGU"},
      {"binder": "B25", "binding signal": "0.0241 KA relative to UGCAUGU"},
      {"binder": "B26", "binding signal": "0.00778 KA relative to UGCAUGU"},
      {"binder": "B27", "binding signal": "0.0144 KA relative to UGCAUGU"},
      {"binder": "B28", "binding signal": "0.0146 KA relative to UGCAUGU"},
      {"binder": "B29", "binding signal": "0.00449 KA relative to UGCAUGU"},
      {"binder": "B30", "binding signal": "0.00937 KA relative to UGCAUGU"},
      {"binder": "B31", "binding signal": "0.00483 KA relative to UGCAUGU"}
    ]}
  ]
}
